Assay results published in publication PMC12136788.
Numbering of substitutions follows the chain as printed. The list shows a part of the results.

T1: UNK ZnF1-3 (human, UniProt Q9C0B0 31-174)
T1 sequence: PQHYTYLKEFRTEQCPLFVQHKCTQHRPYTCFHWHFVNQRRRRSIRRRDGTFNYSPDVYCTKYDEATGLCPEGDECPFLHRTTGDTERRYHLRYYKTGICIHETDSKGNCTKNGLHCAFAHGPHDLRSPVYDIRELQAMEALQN

B1: chr22:19452774:19452775:-_ENSG00000070010_ENST00000399523|hu_hu|hu_hu_hu_mus_False|68_108 (ssRNA)
RNA: GGGAGUUCUACAGUCCGACGAUCCUUUUCAUUAUAGUUGAUAGCAAUCACAUCUCCAGUCGUCAGACAGGCAAAGUUUCUCAAUGCAUUUUCUAAUACCGCUUUAGGGUUGGUAAUAUCCAGGAAGUCUGGGCUCUGAGGCUGCAACAGAGGAUUGAGCAUCA
B2: 72858643_72858763_662_CDS_ENSG00000164331_ENST00000296785|human|control|control (ssRNA)
RNA: GGGAGUUCUACAGUCCGACGAUCAGUGCUGGGACACUCUUCCACGAUAAGCUGGGCUCCAAUAUCCAGAUUUGUUGAUGUAUCCAUGAUUUCAACUGUAGUUUCAAUAACUAAAACAUUUCUUCAUGAUUUCCUCUUGGUUUUCAACAGAGGAUUGAGCAUCA
B3: chr1:6885190:6885191:+_ENSG00000171735_ENST00000473578|hu_hu|motif|central (ssRNA)
RNA: GGGAGUUCUACAGUCCGACGAUCUGAACAUUUCGGCAGACAUUCAAGCAGCUUUUUCGGUAAAAAGAUUUUUACAUGACGGCGGUUGCUGUUCCCAUGAUCAUCUUCUAUAGGUGGCACGGUGUUGAGAACACAGUAGGUGCUCAACAGAGGAUUGAGCAUCA
B4: chr7:140404665:140404666:+_ENSG00000090266_ENST00000247866|hu_hu|FALSE|FALSE (ssRNA)
RNA: GGGAGUUCUACAGUCCGACGAUCCUUGUACAGAGUGAGGCUGAGUCUACACCUUCAGUCUUCAUCAUCAGGAGGGAUACCUAAUUCUUCAUCUGUCCACUGGGAAGGAUCAGGAUACGGAAAGUGACCCAGCACCUCUUCUGACAACAGAGGAUUGAGCAUCA
B5: chr4:144460044:144460045:+_ENSG00000153147_ENST00000283131|hu_mus|hu_hu_hu_mus_False|68_98 (ssRNA)
RNA: GGGAGUUCUACAGUCCGACGAUCACGGUCCAUAGCCUGAAGAUCUACUUGCGGAUUCCAAUCUGAGUCAUACAAAAUGACUACAUCAGCAGUUGCAAGAUUGAUGCCCAGACCACCAGCACGUGUGCUUAGCAUAAAUACAAACAACAGAGGAUUGAGCAUCA
B6: 18851253_18852991_7064_CDS_ENSG00000157106_ENST00000446231|human|control|control (ssRNA)
RNA: GGGAGUUCUACAGUCCGACGAUCGUAGGAAUCUUGGGCCUUUUGUGCUUGUAAGGCAGCUUCCCGUUGUUGCCAUCGUUUGUAAAGACCAAAUAAGGGUGUGGCUCCAUCUACCCACUGGAUUAGUCCUGAUCUUGUUCCUAGCAACAGAGGAUUGAGCAUCA
B7: chr7:140404665:140404666:+_ENSG00000090266_ENST00000247866|hu_hu|hu_hu_hu_mus_False|38_98 (ssRNA)
RNA: GGGAGUUCUACAGUCCGACGAUCUGCUCCUACUCGUAGGCUGAGUCUACAGUGUCAGUCCUCGUCAUCAGGAGGGAUUCCCAGUUCUUCAUCUGUCCACUGGGAAGGAUCUGGAUAUGAAAAGUGACCCAGCACAGCAUCCGACAACAGAGGAUUGAGCAUCA
B8: chr18:56819859:56819860:+_ENSG00000166562_ENST00000588875|hu_mus|motif|central (ssRNA)
RNA: GGGAGUUCUACAGUCCGACGAUCAACCUUGAUUACUCUGUGAACUAUCGGAAUGUCUCUUCCUUCAACCUUAAAAACAACGGUUUCACCAGCUCUGAUGGGGUCCUCCCGGAAAUUCGUGAGGAACAGCAGAUCUCCUCUGUGCAACAGAGGAUUGAGCAUCA
B9: 6688018_6690264_5096_CDS_ENSG00000111642_ENST00000544040|human|control|control (ssRNA)
RNA: GGGAGUUCUACAGUCCGACGAUCUUCUACCACAAUAGGGGUCAGAUCUAUUGCUGACUUUUCCUCCACCUUCUCUACAUCAGCAGCACCUUUGGGCUCUGUCUCCAUAGGUUCCUCUGUUCUCUCCUUCACCUCUGCCUUUUCCAACAGAGGAUUGAGCAUCA
B10: chr5:128440902:128440903:+_ENSG00000066583_ENST00000173527|hu_mus|hu_hu_hu_mus_True|38_68 (ssRNA)
RNA: GGGAGUUCUACAGUCCGACGAUCUUGAACGGUGCUGCCAAGUCCUUUGGGGUAUUGUUCCGUUAUGAUAACAGGAAUCCCUAAGAUCCGAGCUCCUUGCAACAAUCUCUGUCCCACACUAAUGAUGUCCCCAAAGUAUUUGAUCAACAGAGGAUUGAGCAUCA
B11: chr5:128440902:128440903:+_ENSG00000066583_ENST00000173527|hu_mus|hu_hu_hu_mus_True|88_88 (ssRNA)
RNA: B10 RNA with G48A, A72U, A104G
B12: chrX:71549400:71549401:+_ENSMUSG00000019087_ENSMUST00000019231|mus_hu|mus_mus_mus_hu_False|58_78 (ssRNA)
RNA: GGGAGUUCUACAGUCCGACGAUCGCAGUAGGAAGAGGGAAGCUCUUCAGUCCAGUGGUCACAAAACUGGGAAAGCACAACCUAGACCACCGUCCCACCCUCAACCCCCCCACUGGCACAGGGUCACACAAUCUGGGUCAAAGACAACAGAGGAUUGAGCAUCA
B13: chr16:94651144:94651145:+_ENSMUSG00000040785_ENSMUST00000117648|mus_hu|mus_mus_mus_hu_True|48_98 (ssRNA)
RNA: GGGAGUUCUACAGUCCGACGAUCAUUUUCUUGAAUCAAGUGACCGAUAACAUAGUCCACUGCUUCAUUUAGAAAAUUUCUGCUAGAAAAGCAUGUUGUAUAGUCUUCUGUGCUCAAAACUUUCCAAGAAAGCAAUUCUUUGAGCAACAGAGGAUUGAGCAUCA
B14: 119775107_119775227_77_5pUTR_ENSMUSG00000030172_ENSMUST00000032279|mouse|control|control (ssRNA)
RNA: GGGAGUUCUACAGUCCGACGAUCGAAGAAAAAAACAACAAUGUGAUUCUGUGAGGUUUCUCUAUGGCUAUAAAGUCAGCUUACAGCUAACAGAAGUAGCAGGCCAGCAGCUGUCCAAUCUUGAAGAAAUAUCUUAUGCCAUAUCAACAGAGGAUUGAGCAUCA

Each binder was assayed against T1, UNK ZnF1-3 (assay: nsRBNS (natural sequence RNA bind-n-seq); RBNS binding buffer (assumed for nsRBNS): 25 mM Tris pH 7.5, 150 mM KCl, 3 mM MgCl2, 0.01% Triton X-100, 500 ug/ml BSA, 20 U/ml SUPERase-In, 4 C; UNK is unkempt and MSI1 is Musashi-1; names of the RNAs are library labels; protein concentration not given here; high values mean tight binding).

Row | Binder | binding signal
1 | B1 | 1.08 enrichment R
2 | B2 | 0.648 enrichment R
3 | B3 | 0.797 enrichment R
4 | B4 | 0.933 enrichment R
5 | B5 | 1.05 enrichment R
6 | B6 | 0.481 enrichment R
7 | B7 | 1.1 enrichment R
8 | B8 | 0.736 enrichment R
9 | B9 | 0.572 enrichment R
10 | B10 | 0.884 enrichment R
11 | B11 | 0.765 enrichment R
12 | B12 | 1.69 enrichment R
13 | B13 | 0.374 enrichment R
14 | B14 | 1.28 enrichment R
